According to the RNAGym collection of RNA variant scans (doi:10.7554/elife.90254):
The source gives no read counts; variants with many changes may rest on few reads.

B1: OR4K15 (parent)
chain: GUUAACGGUCAUAGGCCAUGGAAACUAGGAGCACCAUUUCGCUGCCAGUGAAGAAAUGAACAAAGAAAAUCUGGGCCAGGCAGGCAUCAAAAGAAAUAGUCUUGCGCUCAACCAGAAAGUCUGUAAUCAUUUUAAGGGUA

Variants of: B1
Experiment: self-cleavage, relative activity (ratio to wild type); higher = more cleavage; in vitro, sequencing; the parent is a self-cleaving ribozyme
A30G A90U U131C showed a self-cleavage of 1.45.
With A33G A52G C81U A135U the self-cleavage was 0.1.
With C32U U39C A60G the self-cleavage was 2.03.
With A30G U43A U122A G136A the self-cleavage was 1.79.
With A33G U43C U72A the self-cleavage was 0.11.
With A30U A64G C88A U133A the self-cleavage was 1.21.
Variant A33U A111G U130C has a self-cleavage of 0.01.
In the case of A33G U57C A67G A94G, the self-cleavage is reported as 0.83.
A33U U49C A59G A62U A67G A89G A126G gave a self-cleavage of 0.48.
Work on A33G A66G C105U U132A yielded a self-cleavage of 0.13.
A30G U37C A56C G119A showed a self-cleavage of 2.47.
Work on A33G A56G G84C A126G yielded a self-cleavage of 0.12.
A33U U49A U102A C105U A117U gave a self-cleavage of 0.01.
With A33G A59G G74A the self-cleavage was 0.19.
Work on A33U A94U U100C yielded a self-cleavage of 2.41.
Work on A30G A67C U70C A86U U108A G123A yielded a self-cleavage of 0.01.
A33G A67U U130C showed a self-cleavage of 0.32.
Work on A30G U39C A91G A126G yielded a self-cleavage of 0.63.
Work on A30G A95G A129U yielded a self-cleavage of 0.89.
Variant A30G A96G U127C has a self-cleavage of 1.09.
With A33G U38C U72A A96U the self-cleavage was 0.19.
Variant A30G A78G U87C has a self-cleavage of 0.33.
Variant G31A A36U A56G U72C has a self-cleavage of 0.13.
A30G A114U U122C gave a self-cleavage of 0.04.
Work on A30G U37C A90G A110G U122C yielded a self-cleavage of 0.02.
Work on A30U A82C A140G yielded a self-cleavage of 0.06.
In the case of A33U G53A A62G A92G, the self-cleavage is reported as 1.13.
A30U A33G U122A showed a self-cleavage of 1.2.
A33G A78G U87A A92G U100C gave a self-cleavage of 0.1.
A33C U87C A118U U133C gave a self-cleavage of 0.44.
C32A U100C G123A gave a self-cleavage of 1.98.
Variant A33C A89G A90G has a self-cleavage of 1.25.
G31A A64G A111G gave a self-cleavage of 0.03.
A30G U43A A51G A59U U70C U102C A135U gave a self-cleavage of 0.74.
Work on A30G A82G A86G U131C yielded a self-cleavage of 0.14.
A33G A134U A135G showed a self-cleavage of 1.12.
Work on A33U A82U A117G U131C A134G yielded a self-cleavage of 0.08.
A30G U38C A62G U127C showed a self-cleavage of 0.84.
A33U A64G G75A showed a self-cleavage of 0.17.
A30U G83A A96U U108A U139C showed a self-cleavage of 0.02.
A33U A110G C113A A118G gave a self-cleavage of 0.01.
In the case of A30U U57C A110U, the self-cleavage is reported as 0.34.
Variant A33G A51U A90G U103C has a self-cleavage of 0.14.
Variant A30G U39C A63G G75U U127C has a self-cleavage of 0.06.
Variant G31A U100C U102C U122C A126U has a self-cleavage of 1.5.
In the case of A33G A68G U120C, the self-cleavage is reported as 0.23.
G31C A116U U122C gave a self-cleavage of 0.22.
Variant A30G C105U U127A has a self-cleavage of 0.49.
In the case of A30G U38C A47G, the self-cleavage is reported as 1.12.
In the case of A30G C46U A68G A95G G119A, the self-cleavage is reported as 1.28.
In the case of A33G G44A A82G A114U A116G, the self-cleavage is reported as 0.02.
With C32G C46U A56G the self-cleavage was 1.07.
In the case of A33G G83A A117G, the self-cleavage is reported as 2.38.
Work on A33G A62U A91U U132A U139C yielded a self-cleavage of 0.98.
Work on A33G A69G G84U A117G A129G yielded a self-cleavage of 0.03.
Variant A33G A67G A111G has a self-cleavage of 0.04.
A30G U43A A52G U57A gave a self-cleavage of 1.65.
For A30U A52G G79A, the self-cleavage was 0.14.
Variant C32A A52U A67G U100C A114G has a self-cleavage of 1.77.
Variant A33G U37C U43C A129C has a self-cleavage of 0.34.
A33G G44A A47U U49A A82G showed a self-cleavage of 0.18.
In the case of A33G U43C A94C U131C, the self-cleavage is reported as 0.31.
In the case of A33G A94C U100C A117C A125G, the self-cleavage is reported as 0.28.
With A33G U43A U127C A140G the self-cleavage was 0.42.
Variant A33G A59U U97C A116G has a self-cleavage of 0.19.
Variant A33G A55G A78G U102C has a self-cleavage of 0.25.
A33G A117G U122C showed a self-cleavage of 0.62.
Variant A33U A54G A69G U127C has a self-cleavage of 0.6.
In the case of A30U A69G G74A U127C, the self-cleavage is reported as 0.07.
For A30G U38C A47G U49C A51G, the self-cleavage was 1.01.
For A33U A60G U103C, the self-cleavage was 0.24.
A33G A78U U108C showed a self-cleavage of 0.02.
With A33U A118G A135U the self-cleavage was 1.23.
In the case of A30G C40A A114U, the self-cleavage is reported as 0.27.
With A30U A96U U127C the self-cleavage was 1.22.
With A33G A62G U87C U130C A134G the self-cleavage was 0.34.
A33U U37C A56G U130C showed a self-cleavage of 0.98.
In the case of A30G A54G A66G, the self-cleavage is reported as 1.27.
A30G U87C U131C gave a self-cleavage of 1.61.
For A33G U72C U103C U108C, the self-cleavage was 0.01.
With A33U A55G A68G G74U the self-cleavage was 0.36.
Variant A33G A82G A129U has a self-cleavage of 0.13.
With A30G G41A U43C the self-cleavage was 1.23.
Work on A33U U49C A62G A64G U120A yielded a self-cleavage of 1.17.
